# Results published in PMC6377148.
# Sequences of proteins named here, by UniProt entry; tags and fusion partners are left off.
# UniProt Q7Z2Z1: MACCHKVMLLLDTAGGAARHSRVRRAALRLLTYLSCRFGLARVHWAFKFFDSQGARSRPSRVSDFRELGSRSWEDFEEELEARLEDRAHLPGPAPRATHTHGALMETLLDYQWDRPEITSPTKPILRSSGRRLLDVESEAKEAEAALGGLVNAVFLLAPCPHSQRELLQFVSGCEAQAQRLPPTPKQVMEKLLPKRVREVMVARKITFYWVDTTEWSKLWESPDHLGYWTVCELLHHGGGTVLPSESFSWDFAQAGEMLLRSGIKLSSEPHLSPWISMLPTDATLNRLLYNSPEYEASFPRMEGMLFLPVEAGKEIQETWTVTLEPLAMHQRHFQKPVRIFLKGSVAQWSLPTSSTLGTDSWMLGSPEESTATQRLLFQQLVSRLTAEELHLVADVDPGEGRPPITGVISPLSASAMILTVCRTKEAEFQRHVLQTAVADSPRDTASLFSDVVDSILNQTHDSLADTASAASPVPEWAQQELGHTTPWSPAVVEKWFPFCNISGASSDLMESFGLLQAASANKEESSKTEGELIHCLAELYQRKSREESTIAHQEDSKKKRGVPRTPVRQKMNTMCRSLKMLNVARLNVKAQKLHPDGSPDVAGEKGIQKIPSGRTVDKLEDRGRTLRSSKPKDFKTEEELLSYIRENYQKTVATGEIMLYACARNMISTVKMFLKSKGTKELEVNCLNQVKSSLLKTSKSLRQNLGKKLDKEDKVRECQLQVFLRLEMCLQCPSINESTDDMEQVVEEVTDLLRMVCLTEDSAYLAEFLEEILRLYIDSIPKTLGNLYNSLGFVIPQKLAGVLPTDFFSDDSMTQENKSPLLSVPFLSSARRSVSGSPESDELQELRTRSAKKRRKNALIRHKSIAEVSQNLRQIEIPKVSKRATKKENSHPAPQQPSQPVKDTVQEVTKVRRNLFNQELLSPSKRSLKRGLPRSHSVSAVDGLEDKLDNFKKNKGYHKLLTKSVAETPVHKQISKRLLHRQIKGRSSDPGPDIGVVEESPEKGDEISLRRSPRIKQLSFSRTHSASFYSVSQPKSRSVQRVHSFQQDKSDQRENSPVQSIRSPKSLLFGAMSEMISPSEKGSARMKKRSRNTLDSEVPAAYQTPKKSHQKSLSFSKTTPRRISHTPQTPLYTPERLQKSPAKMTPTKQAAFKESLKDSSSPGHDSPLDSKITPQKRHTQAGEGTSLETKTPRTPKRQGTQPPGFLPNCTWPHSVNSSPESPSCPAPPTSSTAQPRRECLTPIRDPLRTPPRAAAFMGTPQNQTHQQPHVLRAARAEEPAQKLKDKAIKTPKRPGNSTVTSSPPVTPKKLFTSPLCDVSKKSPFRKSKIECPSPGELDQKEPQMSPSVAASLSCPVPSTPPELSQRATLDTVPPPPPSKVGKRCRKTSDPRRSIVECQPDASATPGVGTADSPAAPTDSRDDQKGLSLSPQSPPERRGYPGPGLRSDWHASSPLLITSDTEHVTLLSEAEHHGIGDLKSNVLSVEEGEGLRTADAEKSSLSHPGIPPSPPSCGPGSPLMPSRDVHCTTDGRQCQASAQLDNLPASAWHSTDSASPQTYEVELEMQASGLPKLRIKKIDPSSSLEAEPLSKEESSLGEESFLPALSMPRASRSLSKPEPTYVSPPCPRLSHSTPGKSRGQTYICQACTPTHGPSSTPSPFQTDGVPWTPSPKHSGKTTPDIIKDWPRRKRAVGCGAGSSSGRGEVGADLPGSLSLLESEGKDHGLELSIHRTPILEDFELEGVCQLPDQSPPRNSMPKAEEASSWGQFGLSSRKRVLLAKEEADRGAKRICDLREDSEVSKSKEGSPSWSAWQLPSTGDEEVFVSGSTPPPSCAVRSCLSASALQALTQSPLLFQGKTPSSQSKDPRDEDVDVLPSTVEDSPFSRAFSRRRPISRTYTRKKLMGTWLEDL
# UniProt P49336: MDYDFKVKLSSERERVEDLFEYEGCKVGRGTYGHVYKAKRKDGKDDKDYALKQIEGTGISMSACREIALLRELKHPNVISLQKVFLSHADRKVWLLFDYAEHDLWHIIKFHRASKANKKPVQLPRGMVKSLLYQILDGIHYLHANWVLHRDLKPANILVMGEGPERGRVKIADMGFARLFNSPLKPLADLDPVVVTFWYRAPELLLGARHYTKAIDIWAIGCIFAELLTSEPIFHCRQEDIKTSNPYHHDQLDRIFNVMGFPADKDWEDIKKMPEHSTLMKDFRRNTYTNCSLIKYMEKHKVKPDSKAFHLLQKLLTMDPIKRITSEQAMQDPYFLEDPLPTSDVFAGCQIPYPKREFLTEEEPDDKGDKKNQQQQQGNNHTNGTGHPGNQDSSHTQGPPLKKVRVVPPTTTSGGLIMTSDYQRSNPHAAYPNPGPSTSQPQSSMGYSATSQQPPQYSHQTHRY
# Numbering of substitutions follows the chain as printed. Results are given in words; binding and its absence hold for the method and conditions named. In cells and extracts the contact can be indirect. Some results given as binding are weak or reduced against the parent protein; the word gives no strength. For some of these results: Sequences can lack the tags named with a protein.
# Columns and labels:
# [1] = molecular target: T1, MTBP-ΔD2-V8 (293T) (human) (UniProt Q96DY7); assay: co-IP; 293T transiently transfected, Fig 2B lanes 1–5: lanes 1–3 C-terminally Flag-GFP-tagged MTBP on anti-GFP nanobodies, the other lanes 3×Flag-tagged MTBP on anti-Flag; which lane holds which N-terminal deletion is not told; endogenous Treslin/TICRR and Cdk8 by immunoblot
# T1 sequence: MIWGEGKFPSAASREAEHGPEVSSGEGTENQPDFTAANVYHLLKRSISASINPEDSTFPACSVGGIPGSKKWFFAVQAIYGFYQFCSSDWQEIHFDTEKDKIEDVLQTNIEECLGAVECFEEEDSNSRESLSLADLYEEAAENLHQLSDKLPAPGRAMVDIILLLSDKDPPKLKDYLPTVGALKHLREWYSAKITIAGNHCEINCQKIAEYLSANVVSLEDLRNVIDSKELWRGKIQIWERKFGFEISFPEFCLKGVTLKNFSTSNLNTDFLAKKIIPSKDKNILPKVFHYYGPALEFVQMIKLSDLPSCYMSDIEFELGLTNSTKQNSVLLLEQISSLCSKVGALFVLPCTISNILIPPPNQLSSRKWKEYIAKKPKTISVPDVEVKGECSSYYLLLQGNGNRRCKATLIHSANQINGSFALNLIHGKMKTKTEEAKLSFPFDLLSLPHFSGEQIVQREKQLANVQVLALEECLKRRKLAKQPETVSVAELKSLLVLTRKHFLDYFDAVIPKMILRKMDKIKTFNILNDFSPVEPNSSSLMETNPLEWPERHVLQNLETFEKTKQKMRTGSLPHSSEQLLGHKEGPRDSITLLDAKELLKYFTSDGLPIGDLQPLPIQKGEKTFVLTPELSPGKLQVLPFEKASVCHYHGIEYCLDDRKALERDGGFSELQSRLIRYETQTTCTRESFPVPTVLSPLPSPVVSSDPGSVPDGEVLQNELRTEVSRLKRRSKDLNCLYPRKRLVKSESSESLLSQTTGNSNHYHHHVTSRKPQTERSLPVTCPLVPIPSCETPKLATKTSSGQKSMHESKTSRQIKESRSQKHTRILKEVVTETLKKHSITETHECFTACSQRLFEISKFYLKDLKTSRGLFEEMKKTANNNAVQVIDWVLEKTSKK
# [2] = molecular target: T2, MTBP-m1/2, C-terminally 3×Flag-tagged (293T) (human) (UniProt Q96DY7); assay: co-IP; 293T transiently transfected with C-terminally 3×Flag-tagged MTBP; anti-FLAG antibody on Protein G Dynabeads, lysis buffer 20 mM HEPES, 150 mM NaCl, 10% glycerol, 0.1% Triton X-100, 1 h at 4°C; endogenous Treslin/TICRR and Cdk8 by immunoblot
# T2 sequence: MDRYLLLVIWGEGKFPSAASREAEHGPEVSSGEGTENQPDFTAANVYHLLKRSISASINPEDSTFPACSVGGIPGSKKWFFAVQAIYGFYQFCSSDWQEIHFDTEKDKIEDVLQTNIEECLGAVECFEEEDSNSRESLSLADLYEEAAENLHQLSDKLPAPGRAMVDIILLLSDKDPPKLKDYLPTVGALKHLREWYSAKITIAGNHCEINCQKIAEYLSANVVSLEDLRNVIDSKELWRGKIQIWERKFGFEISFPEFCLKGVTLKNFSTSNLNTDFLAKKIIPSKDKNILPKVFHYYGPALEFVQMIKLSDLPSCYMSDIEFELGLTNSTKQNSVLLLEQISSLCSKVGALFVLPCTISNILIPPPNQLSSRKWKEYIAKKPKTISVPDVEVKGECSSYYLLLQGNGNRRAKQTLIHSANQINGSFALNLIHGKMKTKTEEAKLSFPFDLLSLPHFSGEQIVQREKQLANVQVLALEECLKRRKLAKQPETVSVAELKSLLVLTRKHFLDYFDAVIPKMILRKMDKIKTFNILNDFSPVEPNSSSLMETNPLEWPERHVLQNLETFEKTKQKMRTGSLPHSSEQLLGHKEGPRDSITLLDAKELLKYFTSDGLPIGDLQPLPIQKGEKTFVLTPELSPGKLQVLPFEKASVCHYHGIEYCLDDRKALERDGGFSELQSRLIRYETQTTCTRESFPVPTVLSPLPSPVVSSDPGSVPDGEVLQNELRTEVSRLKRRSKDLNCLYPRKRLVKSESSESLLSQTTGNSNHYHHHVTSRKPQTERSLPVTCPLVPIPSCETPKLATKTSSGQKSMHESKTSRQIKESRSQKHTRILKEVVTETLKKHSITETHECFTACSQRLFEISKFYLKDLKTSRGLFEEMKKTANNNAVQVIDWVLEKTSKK
# [3] = molecular target: T3, MTBP-m3–6, C-terminally 3×Flag-tagged (293T) (human) (UniProt Q96DY7); assay: as above
# T3 sequence: T2 sequence with A413C, Q415A, Q423A, I424Q, N425A, G426Q
Substance,binding [1],binding [2],binding [3]
"Treslin/TICRR (TopBP1-interacting replication stimulating protein/TopBP1-interacting checkpoint and replication regulator), endogenous (from UniProt Q7Z2Z1 1-1910)",no binding,–,–
"Cdk8 (cyclin-dependent kinase 8), endogenous (from UniProt P49336 1-464) (enzyme)",binds,binds,binds
